Measured values published in PubChem BioAssay AID662 (National Center for Advancing Translational Sciences (NCATS), 2007).
Out of some 71,000 compounds screened, about 1,800 (2.5%) were called active. This list was built around the results that the source calls inconclusive (neither active nor inactive); the mix of calls is not that of the screen. The call rests on the fitted dose curve; in most records, active means well fitted activation curve with a large enough effect in the signal ratio, with a control signal flat (not every such curve was filed as active); inconclusive means small, poorly fitted or top-dose-only effect, or effect the other way, or a change in a side signal; inactive means flat fitted curve, though single readings scatter; the % refers to the signal ratio. Potencies beside an inconclusive call are fits to weak or partial responses and may not hold up.

assay: Cell signaling CRE-BLA (Fsk stim); conditions: CHO CRE-bla reporter (cAMP response element driving beta-lactamase), forskolin EC10, beta-lactamase ratio; activity change, negative = inhibition: at 38.2 µM (top of the series) unless noted; on activity change, negative = inhibition: % of control where 0% means no effect
Procedure, shortened: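 Using CellSensor CRE-bla CHO cells in Opti-MEM with 0.5% dialyzed FBS, compounds were titrated with EC10 NKH 477 for 3 h at 37 °C. CCF4 ratio (460/530 nm) gave %Activity; AC50 derived.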
Potency means the concentration at half of the fitted maximal effect; tags describe the fitted curve by direction and shape.

Row | Structure (SMILES) | activity change, negative = inhibition | Potency
1 | N#Cc1cccc(-c2nc(NCc3ccccc3)c3ccccc3n2)c1 | inconclusive: 0.949% | 
2 | Cc1noc(C)c1-c1cc(Nc2ccc(F)cc2)ncn1 | inconclusive: 26.1% | 
3 | CC(C)CN(C(=O)COC(=O)C12CC3CC(CC(O)(C3)C1)C2)C1CCS(=O)(=O)C1 (stereo unspecified) |  | inconclusive: 1 µM [rising, full curve, poor fit]
4 | COc1ccc(CNc2ncnc3ccc(-c4ccccc4OC)cc23)c(OC)c1 |  | inconclusive: 12.6 µM [rising, partial curve]
5 | Cc1cc(NC(=O)C2CCN(S(=O)(=O)c3cnc[nH]3)CC2)ccc1Br | inconclusive: -10.7% | 
6 | CCCCNC(=O)C(c1ccc(-c2ccccc2)cc1)N(CCN1CCOCC1)C(=O)CCCCCN1C(=O)NC(c2ccc([N+](=O)[O-])cc2)C(C(=O)OCc2ccccc2)=C1C (stereo unspecified) | inactive: -1.87% | 
7 | O=C(CSc1nnc(-c2ccccn2)n1Cc1ccco1)c1ccccc1 | inactive: -3.95% | 
8 | Cc1ccc(S(=O)(=O)CCC(=O)OCC(=O)Nc2ncc(Cl)cc2Cl)cc1 |  | inconclusive: 0.1 µM [falling, single point]
9 | c1ccc(Cn2c(CSc3nnnn3-c3ccccc3)nc3ccccc32)cc1 |  | inconclusive: 3.98 µM [rising, single point]
10 | COc1ccc(NC(C)=O)cc1NC(=O)CSc1nnc(-c2cccnc2)n1C | inactive: 14.2% | 
11 | O=C(Nc1c(C(=O)Nc2cccc(F)c2)oc2ccccc12)c1ccc2c(c1)OCO2 |  | inconclusive: 3.98 µM [rising, partial curve]
12 | CC(CC(=O)O)(CC(=O)O)C(=O)O | inactive: 4.25% [at 7.6 µM] | 
13 | COc1ccc(C(=O)N2CCC3(CCCN(c4ccncc4)C3)CC2)cc1 | inactive: 9.91% | 
14 | CC(C)Sc1nc2c(c(=O)[nH]c(=O)n2C)n1C |  | inconclusive: 10 µM [rising, partial curve]
15 | C[C@@H](C(=O)NCc1ccccc1)[C@H]1C[C@]1(C)[C@H](NC(=O)OCc1ccccc1)c1ccccc1 | inconclusive: -10.7% | 
16 | COc1cc2nc(N3CCNCC3)nc(N)c2cc1OC | inactive: 11.5% | 
17 | CCOc1cc2c(cc1OCC)C(c1cc(OC)c(O)c(OC)c1)NCC2 (stereo unspecified) |  | active: 10 µM
18 | Cc1ccc(OCC(O)Cn2c(N3CCOCC3)nc3c2c(=O)[nH]c(=O)n3C)cc1 (stereo unspecified) | inactive: 11.3% | 
19 | Cn1nc(C(=O)NCC2CCCO2)c2ccccc2c1=O (stereo unspecified) | inactive: 13.8% | 
20 | Cc1cc2n(n1)C(c1ccc(N(C)C)cc1)Nc1ccccc1-2 (stereo unspecified) |  | active: 7.94 µM
21 | CCc1nc2c(n1O)CCc1nonc1-2 | inconclusive: 1.57% | 

Row | Structure (SMILES) | activity change, negative = inhibition | Potency
22 | COc1ncc2nc(-c3cccs3)c(=O)n(CCc3ccccc3)c2n1 |  | inconclusive: 2 µM [rising, full curve]
23 | COC(=O)[C@@]1(Cc2ccc(OC)cc2)[C@H]2c3cc(C(=O)N4CCCC4)n(CCO)c3C[C@H]2CN1C(=O)c1ccccc1 |  | inconclusive: 2.51 µM [rising, partial curve]
24 | COCCNc1oc(COc2cccc(C)c2)nc1C#N | inconclusive: 0.993% | 
25 | Cc1occc1C(=O)N1CCN(c2ccc(Cl)c(Cl)c2)CC1 | inconclusive: -23.1% | 
26 | COc1nc(/C(N)=N/O)nc(N2CCCCC2)n1 |  | inconclusive: 12.6 µM [rising, partial curve]
27 | COCc1c(C(=O)OCC(=O)N2c3ccccc3NC(=O)C2(C)C)oc2ccccc12 |  | inconclusive: 10 µM [rising, single point]
28 | COc1ccc(N2CCN(c3oc(-c4ccccc4OC)nc3C#N)CC2)cc1 |  | inconclusive: 10 µM [rising, partial curve]
29 | O=C(c1ccncc1)N(Cc1ccccc1)Cc1nc2ccccc2c(=O)[nH]1 |  | inconclusive: 25.1 µM [rising, single point]
30 | O=c1c2[nH]c3ccccc3c2ncn1CCN1CCCCC1 | inactive: -11.6% | 
31 | COc1ccccc1NC(=O)N1CCCC1C(=O)NC12CC3CC(CC(C3)C1)C2 (stereo unspecified) | inactive: -3% | 
32 | COc1cc2c(cc1OC)CN(C(=O)CCCN1C(=O)c3ccccc3C1=O)CC2 | inconclusive: 2.29% | 
33 | O=C(c1ccccc1C(=O)N1CCN(c2ccc(F)cc2)CC1)N1CCN(c2ccc(F)cc2)CC1 | inconclusive: -21.7% | 
34 | O=C(O)C1CC(c2ccccc2F)=NO1 (stereo unspecified) | inconclusive: 19.5% [cytotoxic] | 
35 | O=C(CSc1nnc(COc2cccc3cccnc23)o1)c1ccc(F)cc1 |  | inconclusive: 5.01 µM [rising, partial curve]
36 | COc1ccc(-c2nnc(SCc3cc(C)cc(C)c3)o2)cc1 | inactive: 23.8% | 
37 | CCN1C(=O)c2cccc3c(S(=O)(=O)Nc4ccc(OC)cc4OC)ccc1c23 | inactive: 10.5% | 
38 | O=C(O)c1ccc(CN2C(=O)c3ccccc3S2(=O)=O)cc1 |  | inconclusive: 25.1 µM [rising, single point]
39 | Cc1cc(-n2nc(C)cc2C)nc(NS(=O)(=O)c2ccccc2)n1 |  | inconclusive: 12.6 µM [rising, partial curve]
40 | CC1(C)C(=O)Nc2ccccc2N1C(=O)CN1C(=O)c2ccccc2C1=O | inactive: -4.17% | 
41 | c1ccc(CNc2ccnc(-c3ccc4c(c3)OCO4)n2)cc1 | inactive: 6.19% | 
42 | O=C(CNS(=O)(=O)c1ccc(Br)s1)N1CCCC1 |  | inconclusive: 3.98 µM [rising, single point]

Row | Structure (SMILES) | activity change, negative = inhibition | Potency
43 | O=C(c1cnccn1)N1CCC2(CCCN(Cc3ccncc3)C2)CC1 | inactive: -1.68% | 
44 | CCOC(=O)c1cc2nc(Nc3ccc(OC)cc3)sc2s1 |  | inconclusive: 25.1 µM [rising, single point]
45 | C[C@@]12C=CC(=O)C=C1CC[C@@H]1[C@@H]2[C@H](O)C[C@]2(C)[C@@H]1CC[C@]2(O)C(=O)CO | inactive: -8.33% [at 17.1 µM] | 
46 | N#CCCn1c2ccccc2c2nc3ccccc3nc21 |  | active: 3.16 µM
47 | COc1ccccc1CNc1ccnc(-c2ccccc2CN(C)C)n1 | inactive: 1.89% | 
48 | CCOc1ccccc1Cn1c(=O)oc2ccc(C)cc21 | inconclusive: 15.5% | 
49 | CC1CN(c2nc3ccccc3nc2C(C#N)C(=O)NC2CCCCC2)CC(C)O1 (stereo unspecified) |  | inconclusive: 25.1 µM [rising, single point]
50 | CCCN(CCC)S(=O)(=O)c1cccc(C(=O)Nc2ccc3c(c2)OCO3)c1 | inactive: 25.9% | 
51 | COc1ccc(-n2c(CNC(=O)c3ccc(S(=O)(=O)N4CCCC4)cc3)n[nH]c2=S)cc1 |  | inconclusive: 3.98 µM [rising, partial curve, poor fit]
52 | CCC1Oc2ccccc2N(CC(=O)NCCCN2CCN(Cc3ccccc3)CC2)C1=O (stereo unspecified) | inconclusive: 1.85% | 
53 | c1ccc2[nH]c(CSc3nnc(-c4ccncc4)o3)nc2c1 |  | active: 3.98 µM
54 | Cc1cc(C)n2nc(C(=O)Nc3ccccc3N3CCOCC3)nc2n1 | inconclusive: -0.159% | 
55 | Oc1ccc(-c2nc(-c3ccc(O)c(O)c3)cs2)cc1 | inconclusive: -27.3% | 
56 | CCNc1nc(NCC)nc(Oc2ccc(OCC)nn2)n1 |  | inconclusive: 0.316 µM [rising, full curve, poor fit]
57 | CCOc1ccccc1C1C(C(=O)OC)=CN(C)C=C1C(=O)OC |  | inconclusive: 12.6 µM [rising, partial curve]
58 | C=CCN1C(=O)C2C(C(=O)NC)C3(C)C=CC2(O3)C1C(=O)NCc1ccc(OC)cc1 (stereo unspecified) | inconclusive: 20.9% [cytotoxic] | 
59 | Cc1ccccc1-c1nnc2s/c(=C\c3ccc(N(C)C)cc3)c(=O)n12 | inactive: 8.19% | 
60 | O=S(=O)(NC1=NCCCCCC1)c1cccs1 |  | inconclusive: 5.01 µM [falling, single point]
61 | COc1ccc(NC(=O)CSc2nnc(Cc3cccn3C)n2-c2ccc(OC)cc2)cc1 | inconclusive: -16.7% | 
62 | Cc1nn(-c2ccc(Cl)cc2)c2sc(C(=O)N3CCN(c4ccccn4)CC3)cc12 | inactive: 8.99% | 
63 | CCCOC(=O)Nc1sc2c(c1C(=O)OCC)CCC2 |  | inconclusive: 10 µM [rising, single point]

Row | Structure (SMILES) | activity change, negative = inhibition | Potency
64 | COc1cc(-c2noc(-c3cccs3)n2)cc(OC)c1OC |  | active: 10 µM
65 | CCOCCN1CCN(c2c3c(nc4cc(-c5ccc(F)cc5)nn24)CCC3)CC1 | inactive: 11% | 
66 | CN1CCN(c2ccccc2NC(=O)C(Cc2ccccc2)n2cccc2)CC1 (stereo unspecified) | inactive: -5.22% | 
67 | O=C(O)C[C@H](Cc1ccc2c(c1)OCO2)C(=O)O | inactive: 2.69% [at 7.6 µM] | 
68 | CCOC(=O)c1ccc(NC(=O)CN2C(=O)CNC2=O)cc1 | inactive: -3.63% | 
69 | CN(Cc1ccco1)c1ccnc(-c2ccoc2)n1 | inactive: 2.29% | 
70 | Cn1c(SCC(=O)OC2CCCCC2)nnc1-c1ccc2c(c1)OCO2 | inactive: 4.58% | 
71 | O=C(O)c1cc(NCc2cccs2)ccc1N1CCOCC1 | inconclusive: 14.7% | 
72 | COC(=O)c1ccc(C(/C=C/[C@@H](C)C(=O)NCCc2c[nH]c3ccccc23)NC(=O)OCc2ccccc2)cc1 (stereo partly specified) | inactive: -9.78% | 
73 | CCOC(=O)C1CCN(C(=O)CN(Cc2ccc(Cl)cc2)S(C)(=O)=O)CC1 | inconclusive: -2.74% | 
74 | Cc1cccn2c(=O)c3cc(C(=O)NCc4ccco4)c(=N)n(C(C)C)c3nc12 |  | inconclusive: 10 µM [rising, partial curve]
75 | CCCC(=O)Nc1ccc2oc(-c3cccnc3)nc2c1 |  | inconclusive: 12.6 µM [rising, single point]
76 | C=CCOC(=O)Nc1c(C(=O)OC)[nH]c2ccccc12 | inactive: -0.499% | 
77 | COc1ccc2nc(N3CCC(O)CC3)c(C#N)cc2c1 | inconclusive: 16.1% | 
78 | Cn1cccc1C(=O)N1CCC2(CCN(Cc3ccncc3)CC2)CC1 | inactive: 0.334% | 
79 | CCCn1c(=C(C#N)C#N)s/c(=C2\C=Cc3ccccc3N2CC)c1=O | inactive: 6.09% | 
80 | COc1ccc2c(c1)c(=O)cc(C)n2CC(=O)NCc1ccco1 | inconclusive: 21.1% | 
81 | Cc1occc1-c1nnc(SCc2nnc(-c3ccc(Cl)cc3)o2)n1C |  | inconclusive: 5.01 µM [falling, single point]
